Measured values published in PubChem BioAssay AID886 (National Center for Advancing Translational Sciences (NCATS), 2007).
The campaign covered roughly 73,000 compounds. About 2,500 (3.4%) were called active. The inconclusive results got no clear call from the source; some entries with a clear call stand among them for comparison. The call rests on the fitted dose curve; in most records, active means well fitted inhibition curve with a large enough effect; inconclusive means small, poorly fitted or top-dose-only effect; inactive means no such curve, though single readings can be large or run the other way. A potency beside an inconclusive call is a rough fit, not a confirmed value.

Biological target: 3-hydroxyacyl-CoA dehydrogenase type-2 (Homo sapiens) (UniProt Q99714)
UniProt Q99714, sequence (Q99714 whole entry, looked up): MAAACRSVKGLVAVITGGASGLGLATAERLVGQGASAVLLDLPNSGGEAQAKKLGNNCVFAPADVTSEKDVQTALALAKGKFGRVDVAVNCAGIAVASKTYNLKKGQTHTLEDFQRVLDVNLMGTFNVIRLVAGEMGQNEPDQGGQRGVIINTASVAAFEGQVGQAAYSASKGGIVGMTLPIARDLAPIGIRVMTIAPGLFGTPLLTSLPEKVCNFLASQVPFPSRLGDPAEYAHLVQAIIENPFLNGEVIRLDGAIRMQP
UniProt Q99714, sequence (Q99714 whole entry, looked up): as above
Assay: qHTS Assay for Inhibitors of HADH2 (Hydroxyacyl-Coenzyme A Dehydrogenase, Type II); further: nearly all actives have a fitted effect of over 60% in size
Details: recombinant HADH2, NADH fluorescence, beta-hydroxybutyryl-CoA; activity change, negative = inhibition: at 57.1 µM (top of the series)
Method in brief: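 Activity measured as NADH fluorescence gain (360/450 nm), taken as the change between first and last reads of a 4-min kinetic run. Conditions: pH 9.0 Tris buffer, 20 nM E. coli-expressed His-tagged enzyme, 1 mM NAD+, 90 uM beta-hydroxybutyryl-CoA; 15-min compound preincubation.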
On the % scale 0 is the no-effect control and ±100 the full control effect; potency means the concentration at half of the fitted maximal effect; tags describe the fitted curve by direction and shape.

SMILES | activity change, negative = inhibition | Potency
Cc1nc2c(C)cccn2c1/C(O)=C1\C(=O)C(=O)N(CCN2CCOCC2)C1c1ccncc1 (configuration not stated) | inactive: -8.29% | 
Cc1ccc(N2CCN(C(=S)c3ccc(N(C)C)cc3)CC2)cc1 |  | active: 3.98 µM
O=C(O)CC/C=C\C[C@@H]1CO[C@H](c2ccccc2Cl)O[C@@H]1c1ccccc1O | inactive: 7.54% | 
O=C(CSc1nnc(-c2ccc(OC(F)F)cc2)o1)NC(=O)NCc1ccco1 |  | inconclusive: 39.8 µM [inhibitor, single point]
COCCn1c(=O)c(-c2ccc(Cl)cc2)nc2cnc(N3CCNCC3)nc21 | inactive: -14.9% | 
CCOC(=O)C(C)Sc1nc2c(c(=O)[nH]c(=O)n2C)n1CCc1ccccc1 (configuration not stated) |  | inconclusive: 39.8 µM [inhibitor, single point]
c1csc(CSc2nc3ccccc3s2)c1 |  | active: 25.1 µM
Nc1c(C(=O)NCCN2CCOCC2)c2nc3ccccc3nc2n1CCc1ccccc1 |  | inconclusive: 31.6 µM [inhibitor, single point]
O=C(c1cc2ccccc2oc1=O)N1CCN(c2ccccn2)CC1 | inactive: -1.01% | 
CCC1(CC)Nc2ccccc2C(=O)N1c1ccc(NC(C)=O)cc1 |  | active: 25.1 µM
COC(=O)c1cc(CC(=O)c2ccc(O)cc2O)c(C)o1 | inactive: -2.1% | 
Nc1cccc2nsnc12 |  | inconclusive: 1 µM [inhibitor, full curve]
Cn1c(-c2ccccc2)c(CCO)c2ccccc21 |  | inconclusive: 31.6 µM [inhibitor, single point]
CCOC(=O)c1sc(C)nc1C1CCN(C(=O)OCC)CC1 |  | inconclusive: 20 µM [inhibitor, partial curve]
NC(=O)c1c(NC(=O)COC(=O)CSc2nnc(-c3ccc(Cl)cc3)o2)sc2c1CCC2 |  | inconclusive: 39.8 µM [inhibitor, single point]
CS(=O)(=O)Nc1cccc(-c2nccc(-n3ccnc3)n2)c1 |  | active: 15.8 µM
CC(=O)C(C(C)=O)c1c(Cl)c(O)c(O)c2c(C(=O)c3ccccc3)coc12 |  | active: 0.794 µM
Cc1ccc(-c2noc(CN3C(C)CCCC3C)n2)cc1 (configuration not stated) | inactive: -11.2% | 
COC(=O)CSC1=C(C#N)C(c2ccc(Cl)cc2)C(C(=O)OC)C(=O)N1 (configuration not stated) |  | inconclusive: 39.8 µM [inhibitor, single point]
CCOC(=O)c1ccc(N2CSC3=C(C#N)C(c4cccs4)CC(=O)N3C2)cc1 (configuration not stated) |  | active: 5.01 µM
Oc1ccc(CN2CCCc3ccccc32)c2cccnc12 |  | inconclusive: 1.58 µM [inhibitor, full curve]
COC(=O)N1CCC2(CC1)CN(c1ccccc1)C2 |  | inconclusive: 7.94 µM [inhibitor, single point]
